# From the supplement of paper PMC11417369
# ± gives the standard deviation of the averaged measurements. The list shows a part of the results.
# System: PfAP2-G AP2 domain (GST-tagged)
# Assay: gcPBM binding intensity (ln(normalized median fluorescence intensity)); higher = stronger DNA binding
# Outline: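 GST-tagged P. falciparum DNA-binding domains produced in E. coli were incubated for 1 h on an Agilent 4 × 180k array of primer-extended double-stranded 36-bp intergenic genomic probes with negative controls. Binding intensity is the highest Masliner-normalised natural-log median intensity across replicate spots of either probe orientation, with bound protein detected by Alexa488 anti-GST antibody at 488 nm.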
row,Sequence,gcPBM binding intensity (ln)
1,GATATCAAAAAGATGGGTACATATATTTAAGTTCAT [XGTACX_site3822],11.3 ± 0.76
2,TATATTATTAATTAGGGTACAAAAAAAAAATTTTTT [XGTACX_site7762],11.2 ± 0.73
3,ATATATATATATATATATATAATTTTTTTTGTTTTT [TGCATGCA_negctrl_site453],10 ± 0.81
4,TAGGAAAAGAAAAGCACACACATAAATAGATATATA [CACACA_site6382],9.84 ± 0.014
5,TTAAATAGAAATAAGACTAACAATGAACCAAAAAAA [CACACA_negctrl_site991],10.2 ± 0.16
6,TTTTGAAAAAGTTGCACACAAAATTTAAAAAAAAAA [CACACA_site1632],10.4 ± 0.44
7,TTTAAAAATAAAAGTACACACATAAACATATTGCAC [CACACA_site6784],11.6 ± 0.97
8,TGCAACAAAATAAACACACACACACTAACACAAAAA [CACACA_site7567],10.2 ± 0.18
9,ATAAGCAATAAAAAAACATGCATATTATTATCAACA [TGCATGCA_site1027],9.89 ± 0.32
10,TTTTCATTTGAAAGTCGTACAAGTTCGAAAAAAGGA [XGTACX_site6840],11.6 ± 1.2
11,CTTAAAAAAACCTTAACACACATAAACTATAATTTA [CACACA_site3055],9.975 ± 0.021
12,ATATTATATATATGTGCACACAAAAGATATATATAT [CACACA_site2125],10.5 ± 0.38
13,AGTTAATGTTTATGTACACACGGTGGGTATATATTT [CACACA_site5785],11.3 ± 0.76
14,ATCAAGCACGGACACACACACACACCCAGACCCCCA [CACACA_site4360],11.2 ± 0.83
15,AAGTTAACACAACAGGTGCAAGAAAAGTTTTTAATG,10.1 ± 0.14
16,TCTTTAATATATAGTGCATGTAAATTTTACAATAAT [TGCATGCA_site242],10.2 ± 0.28
17,TATGGTATATACAACACACACACATATGTATATATA [CACACA_site927],10.1 ± 0.22
18,AATAATAATAATAATAGTACATATTATGAATATGAT [XGTACX_site5730],10.8 ± 0.69
19,ATAATAAGGTTAAGCACACATATTACAGATATAACT [CACACA_site5791],10 ± 0.18
20,AAATATTATGTGGCAAGTACATAAAGAAAATGCTTA [XGTACX_site3356],11.2 ± 0.84
21,TAATTTTTGAAACACACACACATATATATATATATA [CACACA_site94],10.1 ± 0.32
22,GATCTACATGAAAGGACACACAAATATATATATATA [CACACA_site84],10.8 ± 0.65

row,Sequence,gcPBM binding intensity (ln)
1,ATAAATATGGAGCACACACACATAAACATACCTATA [CACACA_site6336],10.4 ± 0.16
2,TTAAAAATGATTGAATGTACAGATTAATATAATTTT [XGTACX_site7394],10.7 ± 0.28
3,GTAGAGGATTAAGAATGTACACATAAATACATATTT [XGTACX_site8874],11.2 ± 0.41
4,AATTATACATACATATATATATTTATATATATATAT [GTGCAC_negctrl_site462],9.69 ± 0.11
5,GTTACATACAGATACACACACATATATATATATATA [CACACA_site4652],10.3 ± 0.41
6,TTTTTTTTTTTTTGTGCATGTAGATTTATTGTTATA [TGCATGCA_site582],9.88 ± 0.56
7,TTTAAATATATATTTAGTACTTATTCTTAAAATTTT [XGTACX_site624],10.9 ± 0.73
8,AAAAAAGAATAGCACACACACATATATAAATATAAA [CACACA_site4518],10 ± 0.18
9,ATTAAAAAAAAAAGTATACACACTTCTTAATGTCAA [CACACA_site1244],10.2 ± 0.11
10,TTATATCCCGTCCTTTATTAAAAAAATTTTTTTTCT [TGCATGCA_negctrl_site582],10.4 ± 0.21
11,ATGGGTTGTTCAAATAGTACATATGTAGCCCACCAT [XGTACX_site3735],11.4 ± 0.9
12,AAAAAAAAATATATATAAAATTAAAAAATGTAATAT [GTGCAC_negctrl_site581],9.48 ± 0.31
13,AACAAATAAACAAAATTGGAAAATAAAAATATCAAA [CACACA_negctrl_site1125],9.64 ± 0.2
14,TCGTATATGGATTTTGCACACAATTTTAATTTAAAT [CACACA_site4635],10.15 ± 0.071
15,ATGATTTGTCTGAAATGTACATATATATATATATAT [XGTACX_site5247],10.9 ± 0.53
16,TTTTTTTTTTTTTTAATTAATTACCTTTGAATGTGT [CACACA_negctrl_site393],9.88 ± 0.42
17,TAATAATTTTATAAAGTGCATAAAAATAAAAATTTT,9.93 ± 0.042
18,ATATATATGGATGGACGTACGTATGTATGTAATTTC [XGTACX_site4135],11.3 ± 0.64
19,TTCCAACATTGTTTTTGTACATAATTAACTGTTATT [XGTACX_site5224],11 ± 0.4
20,CTTAAAAATAACTGCACACAAAAATAAATACCTTAT [CACACA_site2793],10.15 ± 0.014
21,TAATATTTATAAAATAGTACACAGAAAAAGCATTTT [XGTACX_site8948],11.4 ± 0.88
22,ATTATTTTTTTATGTTGTACATAATATTTTTTAAAA [XGTACX_site1666],11.3 ± 0.87

row,Sequence,gcPBM binding intensity (ln)
1,GAAAAAATATATAAATGTACATATAATAATATCATA [XGTACX_site6788],11 ± 0.52
2,ATATATATTTTATTATGTACATATAAATATTACACA [XGTACX_site4062],11.3 ± 0.7
3,AAAAAAATATATATTACACACATATATACCTATATA [CACACA_site5688],9.98 ± 0.22
4,ATATATATTAATAGGTGTACATATAAAGTGTTATGT [XGTACX_site5464],11.4 ± 0.71
5,ATATTTAATGTTAATTGTACATATTATATATATATA [XGTACX_site6095],11.1 ± 0.55
6,GATTATACAAAATATACACACGTGTAGACAAATATT [CACACA_site4785],10.3 ± 0.23
7,ATAATATTATTATAATGTACATATTTCGATATAAAT [XGTACX_site8808],11.2 ± 0.63
8,TATATATAAGCGTGTACACATTCTGAGTGTTGTATA [CACACA_site4502],11.7 ± 1.1
9,AAAAAAAAATTTTTAAAATTTAGAAAATTTAAAAAA [GTGCAC_negctrl_site649],9.465 ± 0.007
10,TAATAATGCAACCTCTGTACACAACATTATATCCAT [XGTACX_site7596],11.3 ± 0.77
11,TGTGTAATTATATATAAGGAGAAAGAATTCATTTTT [CACACA_negctrl_site670],9.78 ± 0.057
12,ATTGTCTTCTCATATACACACTTTTATGACTATCTT [CACACA_site5696],10.035 ± 0.007
13,AAATGCCATATAATTTTTCTTAAACATAATTGTATA [CACACA_negctrl_site1665],9.44 ± 0.32
14,ACAAAAAATAATCAAAATGTATATATATAATATAAT [XGTACX_negctrl_site593],9.84 ± 0.099
15,TATTGAAGTTATAAAGTGCAGATAAATATGAGTTAT [GTGCAC_site9945],10.2 ± 0.17
16,ATTATCCATGCATTTACACACACACCCAAAAAAATT [CACACA_site4101],10.3 ± 0.28
17,AAAGGGGCATATATATGTACATATTATATATTTTGA [XGTACX_site2436],11.1 ± 0.67
18,CCATAAAAAGGATACACACACACACCCACATATATA [CACACA_site903],10.3 ± 0.26
19,TGTTTTTATATATATGCACACAATGTACAAGTATAC [CACACA_site3529],11.2 ± 0.83
20,AATACATTGTCAAATTGTACAAATTATAGAACTATT [XGTACX_site2222],10.7 ± 0.36
21,TAATTTTTAATTGTAGCATGCAGTATTTTTAAATAT [TGCATGCA_site140],9.96 ± 0.26
22,TTATATATAAACATAAAAAGAAATATATTATGTATA [CACACA_negctrl_site667],9.47 ± 0.15

row,Sequence,gcPBM binding intensity (ln)
1,TATGTGAATATAATCACACACAATACGGAAACCCAC [CACACA_site2725],10.6 ± 0.31
2,AAAGTCTCATTAAAATGTACAAAATTTTCAGCTGTA [XGTACX_site6296],10.5 ± 0.36
3,ATATATATATATATATGTACATATAATTTTTTTTTT [XGTACX_site6948],11.1 ± 0.67
4,TTTATATTAATTTGTGTAAATGCATATGATGAGCAT [XGTACX_negctrl_site254],9.95 ± 0.2
5,AATGGCAAAATAGGCACACACACATATACAGATATA [CACACA_site4726],10.1 ± 0.14
6,TAAATTTTTTTTTTGATGCACTTAGTTATTATATTT,9.88 ± 0.099
7,ATAACAATTATTTATCTACACACTTTTATGTTATTT [CACACA_site7886],9.94 ± 0.22
8,ATTAAGTCTTATATTACACACGACATTGTAATGTAA [CACACA_site528],9.85 ± 0.11
9,ATTCCACTGTTTTAGTGTACTGGTCGTTTTTTTTTT [XGTACX_site1738],11.5 ± 0.68
10,AATTTTTTATACACAAGTACAAACGCGTAGTCACTT [XGTACX_site2458],11.1 ± 0.73
11,AAAAATAAAACAATTACACACATAATTTTATTTTTA [CACACA_site928],9.62 ± 0.21
12,TCCAAAATATCCTTCACACACGAACAGTTTCATTTA [CACACA_site5511],10.1 ± 0.19
13,CTGTTAATTATATATTGTACAAAAGATATGATTATA [XGTACX_site6927],10.8 ± 0.42
14,GAATTTTTGACGATATAGGAAATAATTATCCTGAAG [XGTACX_negctrl_site61],9.985 ± 0.092
15,AAATAAAGAATATAAATACACACTTAAATATATATT [CACACA_site4007],9.79 ± 0.085
16,TGGACCAAACGACAAAAAAAAAGCAGAAAACAAAAA [GTGCAC_negctrl_site693],10.145 ± 0.007
17,ATTTATATATTTATATGTACATATCTATACATATAT [XGTACX_site7580],11.2 ± 0.67
18,TTTTTAAAAAAAAAAAAATAAAAAAAAAAAAAATAT [XGTACX_negctrl_site7],9.77 ± 0.28
19,ATAATAAAATAAATCACACATAATATAATGTAATAT [CACACA_site6144],9.81 ± 0.11
20,ACAAAAAAATAAAATATATATATATATATAATATAT [CACACA_negctrl_site805],9.6 ± 0.24
21,TATACACATTCGCGTTGTACAAAAAAAAAAAAAAAG [XGTACX_site2880],11.1 ± 0.64
22,AATAAAGGAGCCTATGAACACACACCGGTACATATA [CACACA_site9352],10.8 ± 0.34
